In the supplement of paper PMC10681739:
The full ranking holds about 2,700 sequences; the median of “arbitrary fluorescence units” is about 4,100, and the highest 2% start at about 54,000. Some of the results follow.

Molecular target: T1, ETS1 (UniProt P14921)
T1 sequence: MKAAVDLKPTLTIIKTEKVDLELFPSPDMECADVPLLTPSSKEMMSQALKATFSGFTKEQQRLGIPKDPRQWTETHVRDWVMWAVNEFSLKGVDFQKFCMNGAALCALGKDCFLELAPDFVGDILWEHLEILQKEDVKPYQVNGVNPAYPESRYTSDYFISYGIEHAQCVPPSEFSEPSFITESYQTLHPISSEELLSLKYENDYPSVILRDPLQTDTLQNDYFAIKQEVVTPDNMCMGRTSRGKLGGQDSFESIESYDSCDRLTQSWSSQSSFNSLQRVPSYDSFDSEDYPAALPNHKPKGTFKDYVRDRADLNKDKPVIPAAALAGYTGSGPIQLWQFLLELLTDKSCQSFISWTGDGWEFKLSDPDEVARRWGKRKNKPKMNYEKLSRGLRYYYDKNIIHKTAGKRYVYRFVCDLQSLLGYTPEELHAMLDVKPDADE
Experiment: ETS1 binding intensity (PBM fluorescence) (arbitrary fluorescence units); higher = stronger binding
Settings: ETS1 concentration 10 nM
Experimental: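 gcPBM on wild-type 36-bp genomic probes with two neighbouring ETS1 sites (4-24 bp apart). Recombinant human ETS1 (10 nM) was detected with anti-ETS1 antibody fluorescence. Values are medians over 3 replicate spots. The probes sit in constant array flanks that are not printed.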

Sequence | ETS1 binding intensity
TCGGCAGGAAACATCTTGGCAGGACAGGAAGCGCGG | 2010
CAGTCTTGGCGGGAAACGCCGCGGAAGACGCTTCTC | 183
TTCACCCCACCACTTCCTCATCCTGATCTCAGCTCA | 2880
TTGCAGAATAACAGGAAGAGGAAGTTGTTATCTGTT | 2010
AAAACGTGCTTCCGGTTCTCGGCGGAAGTAGCCCCG | 47600
CTAAGAAGGGGGAAATGGTCTCTTTCCTGGGTGGTA | 423
AGCCCTGCAGGATGTGACTCAGCATCCTGTCTCAGT | 6810
GCCGAGGAGCCGGAAGAGAGGCGGAAAGGGCAGCAG | 4960
GGGAGGAAATGGGGCGAAACCTCAGGAGGGATGTGG | 554
TTACCGCCGCTTCCGGGGGCGCAGGAAATGCGCGTT | 18600
CCCGACTTCCTGCCCCGCCAGAGCCAGGAAGCGGGA | 43600
TGGGCTTCCTGGCGTGGGGCCTCCGCCCTTCCTGTC | 6360
GTCCGTCAGAACCGGAAGCGGAAGCCCCAGGGAGGG | 15600
AGTAGCACCCAACTTCCTGGGGAAATGATTCAGATT | 7230
CTCCAACCCGGAAACGCGCGGCTCTTCCGGCCGGCG | 10000
TTGTGCTTCCGCTCGGGGAAAGACCGCTTCCGGTGC | 33300
CCAACATCCTGTCTTTGTGAAGCAGGGTTTCCTGCA | 46600
CTCATAAACAGGAAGAAGTGAGCGGATGCTGCTACT | 3010
CTCAATGGAGCTTCCGTCCGTTTCCCATGGTGCCCT | 3900
TGGAGCGTTCCGCTCTGTGAGCCCCATCCGGGCCCA | 294
TCTACTTCCGGTTTGCCTGTGAATTCTTTCCTGGGC | 153000

Sequence | ETS1 binding intensity
AATGAACAGGAAATGGTCATTAACATCCTGCAAATG | 20600
CGCCTTCCGTCTATGGCTTGGGGTCGGCTTCCGTCC | 5130
ACAATTAAAGAGGAAATAGACAGGAAGCAGAGCTCA | 2830
GAAGTAGCAGCTTCCTCAAGCAGGAAGTAGGAAAAG | 6100
AGTGAGGCAGGAAGCAGCAGGGAGGAAGCCACAATG | 3300
TAATCCCAGGAAAATTAGTTACCCTTCCTGTTTACC | 357
GCCTCAGGGTTTCCTGCTTTACTTCCTAAGCTCCCC | 9200
GTTTTCAGTTGCCTTCCGGTTTCCTGCTGTGATAAC | 15800
GGGAGAAGCGCGGAAGCACGGTTTCCTGGGCCTTCG | 1050
CACCGGAAGCCAGAAATGAGCAGAGAGCGGAACCAG | 13900
AATGCAGAGCAGGATGTGGCTTTCCTGCCCCAATTT | 4850
TAACCTTGGCTTCCTTATTTAAAGGAAGTGGCTGTT | 1340
TGCGGACTTCCCCAAACCCAGCTATTTCCTGTCCCT | 6580
CGCGGACCTCTTCCCGTTGCTCTTCCTCCCGCCACA | 1890
ACATTACGGCGGAAGGCTCTGGAGGAAGCAGAAGTG | 232
ACGTGCATCATGGCTTCCTTCCTGTCCCCACACCTG | 3520
CGACTCAGCGCTTCCGGGGAGCGGAAGGGGGAGCGC | 17700
GCCTCCGGGAGGAAGTGGCCAAGTTCCTGTCTTTCT | 7460
CCTACAGGCCACTTCCTGCAGGAAGTGTCTCTCCAG | 17200
TGGTCAGGAAGCTGTTTATCAAGCTGGGGAAGTCTG | 319
GACCGGTGAGCAGGATGTTCGGAAGCAACATGGTCC | 1880

Sequence | ETS1 binding intensity
CGCCGCCGGAAGTGCCTGGCCTCACTTCCGGTCAGA | 37200
CGGCGCCGGGACAGGAAGCGGAAAGCAGCAGTGCAG | 6720
GCGCCACAGGAAGAGTGGAGAACAGGAAGCTGAGGG | 2230
GGCCTGTGTGGTTTCCTGCATTTCCGGCAGCTGATC | 18300
AAGTCAGGAAACAACAGATGCTGGAGAGGATGTGGT | 375
GACTCATTTCCCAGCAACTCCGGGTTTCCTGTAGCC | 883
CGCCCCTTTCCGGGGACGTTTCACCGGATTGGCTGT | 5040
GATGACCTGCCATTTCCCCAGGAAAGCTGAGACCCC | 201
CGAAAGTGGCGTTTCCCGCAGTTCCGGCGGGAGAGC | 1510
TAAACAGCTCTTTTTCCGTTTCCTGATATTGACATA | 1690
AATTATTTCCGCTCCTGCACCTCAGTTTCCGCCTCT | 35000
CTCGCCGGAAATGCGGGCTCTCCTGCCGGAAGCTGC | 11900
ACTCACATCCTGTGCGGGAGGGAGCAGGATGGCACG | 36200
ACAGGTTTGTAGGAAGCGGCATTTCCCAAAAGCAAC | 213
TTCACTTTATCCTGTCCAAAGCAGATCCTGTTTTGG | 1260
CGCGGAGGCCGCTTCCTCTCAGGATGAGGTGGAGAA | 3020
CGCGCCGGAAGTGCCTTGCGCGGCAGAGGAAGCGCA | 23300
AAGCCTGAGACAGGAAGGGAGGAAGCCGAGGTGGCA | 1260
CTGGCAGGAAATGAAAGTGAAGGGCAGGAAGGGGCA | 7980
GGCGGCATCTCGGAAATGCCCGGATGAGACTGCTAA | 352
ACCTTCTTCCGGACTTGCTGCAGGACGGAAGCCGCT | 16500
